From patent US8633183B2 (priority 2010, dated 2014)

Test system: U87MG human glioblastoma cell line
Assay: cells
Conditions: U-87 MG, read-out: EC50 U87MG

Row | SMILES | EC50
1 | CCc1ncnc(-c2ccc(C(=O)N3CCN(CC4CC4)CC3)c(C)c2)c1C#Cc1ccc(N)nc1 [Example E-116] | 18.6 nM
2 | CCc1ncnc(-c2ccc(C(=O)N3CCN(C4CCCC4)CC3)c(OC)c2)c1C#Cc1ccc(N)nc1 [Example E-68] | 151 nM
3 | CCc1ncnc(-c2ccc(C(=O)N3C[C@H]4C[C@@H]3CN4C)c(F)c2)c1C#Cc1ccc(N)nc1 [Example E-16] | 125 nM
4 | CCc1ncnc(-c2ccc(C(=O)N3CCN(CC4CC4)CC3)c(Cl)c2)c1C#Cc1ccc(N)nc1 [Example E-18] | 42 nM
5 | CCc1ncnc(-c2ccc(C(=O)N3CCC(N(C)C)C3)c(C)c2)c1C#Cc1ccc(N)nc1 (centres unmarked) [Example E-125] | 101 nM
6 | CCc1ncnc(-c2ccc(C(=O)N3CCC(N4CCOCC4)CC3)c(Cl)c2)c1C#Cc1ccc(N)nc1 [Example E-71] | 35.4 nM
7 | CCc1ncnc(-c2ccc(C(=O)N3CCN(C4CCOCC4)CC3)c(C)c2)c1C#Cc1ccc(N)nc1 [Example E-88] | 47.6 nM
8 | CCc1ncnc(-c2ccc(C(=O)NC3CCCN(C)C3)c(Cl)c2)c1C#Cc1ccc(N)nc1 (centres unmarked) [Example E-22] | 225 nM
9 | CCc1ncnc(-c2ccc(C(=O)N3CCN(Cc4ccccc4)CC3)c(OC)c2)c1C#Cc1ccc(N)nc1 [Example E-69] | 532 nM
10 | CCc1ncnc(-c2ccc(C(=O)N3CC[S+]([O-])CC3)c(C)c2)c1C#Cc1ccc(N)nc1 [Example E-121] | 53.6 nM
11 | CCOC(=O)N1CCN(C(=O)c2ccc(-c3ncnc(CC)c3C#Cc3ccc(N)nc3)cc2Cl)CC1 [Example E-82] | 108 nM
12 | CCc1ncnc(-c2ccc(C(=O)N3CCC(N4CCC(C)CC4)C3)c(C)c2)c1C#Cc1ccc(N)nc1 (centres unmarked) [Example E-96] | 125 nM
13 | CCc1ncnc(-c2ccc(C(=O)N3CCC(C4CCN(C)CC4)CC3)c(C)c2)c1C#Cc1ccc(N)nc1 [Example E-119] | 45 nM
14 | CCc1ncnc(-c2ccc(C(=O)NCCN3CCOCC3)c(OC)c2)c1C#Cc1ccc(N)nc1 [Example E-64] | 226 nM
15 | CCc1ncnc(-c2ccc(C(=O)N3CCC(N4CCOCC4)CC3)c(C)c2)c1C#Cc1ccc(N)nc1 [Example E-91] | 132 nM
16 | CCc1ncnc(-c2ccc(C(=O)N(C)O)c(C)c2)c1C#Cc1ccc(N)nc1 [Example E-128] | 55.1 nM
17 | CCc1ncnc(-c2ccc(C(=O)N3CCN4CCCCC4C3)c(C)c2)c1C#Cc1ccc(N)nc1 (centres unmarked) [Example E-101] | 81.8 nM
18 | CCc1ncnc(-c2ccc(C(=O)N(C)C3CCS(=O)(=O)C3)c(Cl)c2)c1C#Cc1ccc(N)nc1 (centres unmarked) [Example E-80] | 113 nM
19 | CCc1ncnc(-c2ccc(C(=O)N3CCN(c4ccncc4)CC3)c(C)c2)c1C#Cc1ccc(N)nc1 [Example E-131] | 82.7 nM
20 | CCCCN1CCN(C(=O)c2ccc(-c3ncnc(CC)c3C#Cc3ccc(N)nc3)cc2C)CC1 [Example E-86] | 90.2 nM
21 | CCc1ncnc(-c2ccc(C(=O)N3CCC(OC)CC3)c(Cl)c2)c1C#Cc1ccc(N)nc1 [Example E-24] | 57.8 nM
22 | CCc1ncnc(-c2ccc(C(=O)N3CCC(O)CC3)c(C)c2)c1C#Cc1ccc(N)nc1 [Example E-132] | 69.7 nM
23 | CCc1ncnc(-c2ccc(C(=O)N(C)CCN3CCCC3=O)c(OC)c2)c1C#Cc1ccc(N)nc1 [Example E-65] | 444 nM
24 | CCc1ncnc(-c2ccc(C(=O)N3CC(O)CO3)c(Cl)c2)c1C#Cc1ccc(N)nc1 (centres unmarked) [Example E-73] | 243 nM
25 | CCc1ncnc(-c2ccc(C(=O)N3CCOC(C)(C)C3)c(F)c2)c1C#Cc1ccc(N)nc1 [Example E-15] | 64.2 nM
26 | CCc1ncnc(-c2ccc(C(=O)N3CCN(c4ccncc4)CC3)c(Cl)c2)c1C#Cc1ccc(N)nc1 [Example E-37] | 117 nM
27 | CCc1ncnc(-c2ccc(C(=O)N3CCN(c4ccccn4)CC3)c(C)c2)c1C#Cc1ccc(N)nc1 [Example E-130] | 33.3 nM

Row | SMILES | EC50
28 | CCc1ncnc(-c2ccc(C(=O)N3CC[C@@H](O)C3)c(Cl)c2)c1C#Cc1ccc(N)nc1 [Example E-28] | 229 nM
29 | CCc1ncnc(-c2ccc(C(=O)N3CCCO3)c(Cl)c2)c1C#Cc1ccc(N)nc1 [Example E-74] | 102 nM
30 | CCc1ncnc(-c2ccc(C(=O)N3CCN4CCCCC4C3)c(OC)c2)c1C#Cc1ccc(N)nc1 (centres unmarked) [Example E-57] | 202 nM
31 | CCc1ncnc(-c2ccc(C(=O)N3CCC4(CCN(C)CC4)CC3)c(C)c2)c1C#Cc1ccc(N)nc1 [Example E-97] | 290 nM
32 | CCc1ncnc(-c2ccc(C(=O)N3CC[C@H](O)C3)c(Cl)c2)c1C#Cc1ccc(N)nc1 [Example E-27] | 149 nM
33 | CCc1ncnc(-c2ccc(C(=O)N3CCC(N(C)C)CC3)c(OC)c2)c1C#Cc1ccc(N)nc1 [Example E-59] | 481 nM
34 | CCOC(=O)N1CCN(C(=O)c2ccc(-c3ncnc(CC)c3C#Cc3ccc(N)nc3)cc2C)CC1 [Example E-107] | 117 nM
35 | CCc1ncnc(-c2ccc(C(=O)N(C)OC)c(C)c2)c1C#Cc1ccc(N)nc1 [Example E-104] | 104 nM
36 | CCc1ncnc(-c2cc(F)c(C(=O)NCCN3CCOCC3)c(F)c2)c1C#Cc1ccc(N)nc1 [Example E-13] | 85.3 nM
37 | CCc1ncnc(-c2ccc(C(=O)N3CCC4(CCN(C)CC4)CC3)c(Cl)c2)c1C#Cc1ccc(N)nc1 [Example E-26] | 338 nM
38 | CCc1ncnc(-c2ccc(C(=O)N3CCC4(CCN(C)C4)C3)c(Cl)c2)c1C#Cc1ccc(N)nc1 (centres unmarked) [Example E-40] | 373 nM
39 | CCc1ncnc(-c2ccc(C(=O)N(C)C3CCS(=O)(=O)C3)c(C)c2)c1C#Cc1ccc(N)nc1 (centres unmarked) [Example E-105] | 145 nM
40 | CCc1ncnc(-c2cc(F)c(C(=O)N3CCN(C4CCOCC4)CC3)c(F)c2)c1C#Cc1ccc(N)nc1 [Example E-6] | 24.9 nM
41 | CCc1ncnc(-c2ccc(C(=O)NCC3(C)COC3)c(C)c2)c1C#Cc1ccc(N)nc1 [Example E-134] | 34.8 nM
42 | CCc1ncnc(-c2ccc(C(=O)N3CCCO3)c(OC)c2)c1C#Cc1ccc(N)nc1 [Example E-50] | 149 nM
43 | CCc1ncnc(-c2ccc(C(=O)N3CCOCC3)c(OC)c2)c1C#Cc1ccc(N)nc1 [Example E-48] | 160 nM
44 | CCc1ncnc(-c2ccc(C(=O)N3CCCC(N(C)C)C3)c(Cl)c2)c1C#Cc1ccc(N)nc1 (centres unmarked) [Example E-75] | 299 nM
45 | CCc1ncnc(-c2ccc(C(=O)N3CCC(O)CC3)c(Cl)c2)c1C#Cc1ccc(N)nc1 [Example E-38] | 137 nM
46 | CCc1ncnc(-c2ccc(C(=O)N3CCN(c4ccccc4)CC3)c(C)c2)c1C#Cc1ccc(N)nc1 [Example E-135] | 59.1 nM
47 | CCc1ncnc(-c2ccc(C(=O)N3CCC(N4CCCC4)CC3)c(C)c2)c1C#Cc1ccc(N)nc1 [Example E-126] | 89 nM
48 | CCc1ncnc(-c2cc(F)c(C(=O)NC)c(F)c2)c1C#Cc1ccc(N)nc1 [Example E-12] | 89.9 nM
49 | CCc1ncnc(-c2cc(F)c(C(=O)N(C)C)c(F)c2)c1C#Cc1ccc(N)nc1 [Example E-10] | 48.7 nM
50 | CCc1ncnc(-c2ccc(C(=O)N3CCC(N4CCN(C)CC4)CC3)c(OC)c2)c1C#Cc1ccc(N)nc1 [Example E-45] | 448 nM
51 | CCc1ncnc(-c2ccc(C(=O)NCC3(C)COC3)c(Cl)c2)c1C#Cc1ccc(N)nc1 [Example E-41] | 78 nM
52 | CCc1ncnc(-c2ccc(C(=O)N(C)O)c(Cl)c2)c1C#Cc1ccc(N)nc1 [Example E-35] | 134 nM
53 | CCOC(=O)N1CCN(C(=O)c2ccc(-c3ncnc(CC)c3C#Cc3ccc(N)nc3)cc2OC)CC1 [Example E-62] | 269 nM
